From the supplement of paper PMC10338343 come the findings set out here.

± gives the standard deviation. Only a part is listed here, and it is no random draw.

The test concerns MIWI (PIWIL1) piRISC loaded with piRNA #1 (30 nt). Kind of test: pre-steady-state target cleavage rate (min^-1); MIWI and MILI are mouse PIWI proteins and EfPiwi is from a freshwater sponge; tags in brackets are library labels; higher = faster piRNA-guided slicing of the target. The following applies: guide: piRNA #1 5'p-UGAGGUAGUAGGUUGUAUAGUAUCCAGAGG; auxiliary factor: 500 nM mouse GTSF1. Put shortly: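 Cleave-'n-Seq used a transcribed, DNA-blocked target RNA library at 0.1 nM and active affinity-purified piRISC with one synthetic guide at 1 nM, with or without 500 nM GTSF1 partner protein, in HEPES–potassium acetate buffer at 33 °C for 0–8 or 0–960 min. Uncleaved targets were sequenced and normalised to depth and to weakly complementary targets, and three trials were pooled with k3 capped at 0.0001 min^-1. The pre-steady-state cleavage rate was estimated by a burst-and-steady-state fit.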
On to GGAGACCAUACUAUACAACCUACUACCUGCA, for which the “pre-steady-state target cleavage rate” value is 1.66 ± 0.15. GGAGACGAUACUCUACAACCUACUACCUCA: the “pre-steady-state target cleavage rate” value was found to be 1.53 ± 0.094. With GGACUGGAUACUACACAACCUACUACCUCA the figure was 1.77 ± 0.11; with GGAGUGGAUUCUAUACAACCUACAACCUCA, 0.453 ± 0.046; with GGAGACCUAACUAUACAACCUACUACCCA, 0.186 ± 0.041. On to GGACUGGAUAGUAUACAACGUACUACCUCA, for which the “pre-steady-state target cleavage rate” value came to 0.22 ± 0.042. With GCUCUGGAUACUAUACAACCCACUACCUCA, the “pre-steady-state target cleavage rate” value stood at 0.84 ± 0.034.

In the case of GGAGACCUAUCUUUACAACCUACUACCUCA, the “pre-steady-state target cleavage rate” value stood at 0.247 ± 0.037. As for GGAGACCUAAGUAUACAAGCUACUACCUCA, the “pre-steady-state target cleavage rate” value turned out to be 0.0616 ± 0.012.

As for GGUCUGCAUACUAUACAACCUACUACGUCA, the “pre-steady-state target cleavage rate” value worked out at 0.635 ± 0.066. With CCUCUGGAUACUAUACAAACUACUACCUCA the figure was 1.27 ± 0.047; with GGAGAGGAUACUAACAACCUACUACCUCA, 1.23 ± 0.068; with GGAGUGGAUACUAUUCAACCUACUACGUCA, 0.34 ± 0.038. The same measure for CCUCUGGAUACUAUACAACCAACAACCUCA: 0.096 ± 0.015; for GGACUGGAUACUUUACAACCAACUACCUCA: 0.0795 ± 0.0081; for GGAGACCUUACUAAACAACCUACAACCUCA: 0.228 ± 0.041. The same measure for GGAGACGAUACUAUGACAACCUACUACCUCA: 1.59 ± 0.1; for GGACUGGAUACUAUACAUCCUUCUACCUCA: 0.272 ± 0.025; for GCUCUGGAUACUAUACAUCCUACUAGCUCA: 0.48 ± 0.045. With GGAGACGAAACUAAACAACCUACUACCUCA, the “pre-steady-state target cleavage rate” value stood at 0.626 ± 0.069. With GGAGACCUAACUAUACAAGCUACUACCUGA the figure was 0.434 ± 0.036; with GGACAGGAUACUUUACAACCUACUACCUCA, 1.64 ± 0.12. Take “GGAGACCUAUGAUUACAACCUACAUGGAGA [g8:g17:cont:t1A]”: the “pre-steady-state target cleavage rate” value was less than 0.0001. The same measure for GGAGACCUAACUAUACACCCUACUACCUCA: 0.745 ± 0.07.

On to GGACUGGAUACUAGUACAACCUACUACCUCA, for which the “pre-steady-state target cleavage rate” value is 1.48 ± 0.14.

Consider GGUCACGAUACUAUACAACCUACUACCUCA, for which the “pre-steady-state target cleavage rate” value worked out at 1.89 ± 0.12. With GGAGAGGAUACUAGACAACCUACUACCUCA the figure was 0.565 ± 0.037; with CCUCUGGAUACUAUACCAACCUACUACCUCA, 0.4 ± 0.073; with GGAGACCAUACUAUACAACGUUCUACCUCA, 0.0192 ± 0.0032. The same measure for GCUCUGGAUACUUAUCAACCUACUACCUCA: 0.893 ± 0.071.

Take GGAGACCUUACUUUACAACCUACAACCUCA: the “pre-steady-state target cleavage rate” value turned out to be 0.229 ± 0.029. The same measure for GGAGUGGAUACUAUACAACCUUGAACCUCA: 0.00314 ± 0.002; for GGAGACCUUACUAUAAAACCUACUACCUCA: 1.16 ± 0.1; for GGAGAGGAUACUAUAGAAGCUACUACCUCA: 0.241 ± 0.024.

Consider GGAGACCUUACUAAACAACCAACUACCUCA, for which the “pre-steady-state target cleavage rate” value was 0.013 ± 0.0034. The same measure for GGAGACGAUACUAAACAACCUACUACCUGA: 0.66 ± 0.093. With GGAGACGAUACUAUACAACCUACUUCCUGA the figure was 0.254 ± 0.067. In the case of GGAGACCAUACUAUACUACCUACUACGUCA, the “pre-steady-state target cleavage rate” value was determined as 0.517 ± 0.032.

For the sequence GGAGACCUUUCUAUACAACGUACUACCUCA, the “pre-steady-state target cleavage rate” value amounted to 0.113 ± 0.01. With GGAGACGUAUACUAUACAACCUACUACCUCA the figure was 1.76 ± 0.1.
